Laboratory results: ChEMBL document CHEMBL4888484, “Replenishing the malaria drug discovery pipeline: Screening and hit evaluation of the MMV Hit Generation Library 1 (HGL1) against asexual blood stage Plasmodium falciparum ,using a nano luciferase reporter read-out” (2022)
Screen size: about 150,000 compounds; about 540 (0.36%) showed an effect of 50% or more. This is one part of the list.

The compounds below were run on Plasmodium falciparum (assay: Primary screen in NF54 nanoGlo assay, in single point, at 2uM, 72h; a lower Z score goes with more inhibition). Details: timepoint 72 hour.
Format: functional, Erythrocyte

**Q.** CCOc1ccc(CNC(=O)c2cccc(Nc3ccnc(-c4ccc(C)cc4)n3)c2)cc1OCC was tested. Which “% Inhibition” value did it give?
**A.** -22%

**Q.** What about the Z score of the same compound?
**A.** 1.96

**Q.** For CO[C@H]1CCOC[C@@H]1NC(=O)N(C)C, which “% Inhibition” value is on record?
**A.** -5%

**Q.** What about the Z score of the same compound?
**A.** 0.47

**Q.** For COCCc1noc(CNC(=O)CCn2cc(C)cn2)n1, which “% Inhibition” value is on record?
**A.** -16%

**Q.** What about the Z score of the same compound?
**A.** 1.98

**Q.** What does the source list for CC(=O)c1cc(C(=O)c2ccccc2)n2c1c(-c1ccc3ccccc3n1)cc1ccccc12?
**A.** % Inhibition: 11%; Z score: -1.5

**Q.** C[C@H](C#N)CNS(=O)(=O)c1cc(C(=O)O)cc2c1CCCC2 was tested. Which “% Inhibition” value did it give?
**A.** -3%

**Q.** What about the Z score of the same compound?
**A.** 0.69

**Q.** For CCCC(=O)N1CCCCC[C@H](Nc2ccc3nccnc3n2)C1, which “% Inhibition” value is on record?
**A.** 17%

**Q.** And the Z score?
**A.** -2.15

**Q.** How did the “% Inhibition” value turn out when CCOC(=O)c1ccc(C(=O)Oc2ccc(N)cc2)[nH]1 was run?
**A.** -17%

**Q.** And the Z score?
**A.** 1.98

**Q.** What does the source list for CCN(CC(C)C)C(=O)C1(S(C)(=O)=O)CCOCC1?
**A.** % Inhibition: 8%; Z score: -0.96

**Q.** What does the source list for CN1CCN(Cc2ccc(OCCCn3ccnc3)cc2)C[C@@H]1CO?
**A.** % Inhibition: 0%; Z score: -0.04

**Q.** With Cn1nccc1[C@H](CO)NC(=O)COc1ccc(F)cc1 as the compound, how does the “% Inhibition” value read?
**A.** 3%

**Q.** What about the Z score of the same compound?
**A.** -0.46

**Q.** For COc1ccc(-c2nc3ccc(C)cn3c2NC(=O)CCC2CCCC2)cc1OC, which “% Inhibition” value is on record?
**A.** 5%

**Q.** What about the Z score of the same compound?
**A.** -0.65

**Q.** Which results are given for COC(=O)c1ccc(O[C@@H](C)C(N)=O)cc1?
**A.** % Inhibition: -7%; Z score: 1.27

**Q.** For Cc1ccc(-c2nn(C)c(=O)c3c2CCCC3)cc1S(=O)(=O)NCc1cccnc1, which “% Inhibition” value is on record?
**A.** -11%

**Q.** And the Z score?
**A.** 1.62

**Q.** How did the “% Inhibition” value turn out when Cc1nc(CCN2CCCCCC2=O)n(C2Cc3ccccc3C2)n1 was run?
**A.** -7%

**Q.** What about the Z score of the same compound?
**A.** 0.95

**Q.** O=C(CCC1CCCC1)Nn1cnc2ccccc2c1=O was tested. Which “% Inhibition” value did it give?
**A.** -7%

**Q.** What about the Z score of the same compound?
**A.** 0.84

**Q.** With COc1ccc(NC(=O)C2CCCCC2)cc1S(=O)(=O)N1CCCCC1 as the compound, how does the “% Inhibition” value read?
**A.** 7%

**Q.** And the Z score?
**A.** -0.78

**Q.** How did the “% Inhibition” value turn out when O=C(CCn1cnc2cc(-c3noc(-c4ccc(F)cc4)n3)ccc21)N1CCCCC1 was run?
**A.** -19%

**Q.** What about the Z score of the same compound?
**A.** 2.49

**Q.** COCC[C@H]1COCCN1c1nccn2cnnc12 was tested. Which “% Inhibition” value did it give?
**A.** -15%

**Q.** And the Z score?
**A.** 1.78

**Q.** Which results are given for C[C@H](NC(=O)c1cc(Cl)c2c(c1)OCCCO2)c1cccs1?
**A.** % Inhibition: -3%; Z score: 0.37

**Q.** For CCC(NCC1Cc2ccccc2O1)c1c(C)nn(C)c1C (stereo not drawn), which “% Inhibition” value is on record?
**A.** 4%

**Q.** What about the Z score of the same compound?
**A.** -0.66

**Q.** CCc1cnc(N(C)Cc2c(C)nn(C)c2C)nc1 was tested. Which “% Inhibition” value did it give?
**A.** 3%

**Q.** And the Z score?
**A.** -0.39

**Q.** Cc1ccc(CN2CCN(C(=O)c3csc(C)n3)[C@H]3CS(=O)(=O)C[C@H]32)o1 was tested. Which “% Inhibition” value did it give?
**A.** -10%

**Q.** What about the Z score of the same compound?
**A.** 1.59

**Q.** With O=C(CN1C(=O)N[C@]2(CCc3ccccc3C2)C1=O)Nc1ccc2c(c1)OCO2 as the compound, how does the “% Inhibition” value read?
**A.** 3%

**Q.** What about the Z score of the same compound?
**A.** -0.59

**Q.** Which “% Inhibition” value does the source give for COc1ccc(C[C@@H]2CC[C@H](CN3CCCOCC3)O2)cc1F here?
**A.** -1%

**Q.** What about the Z score of the same compound?
**A.** 0.14

**Q.** Which “% Inhibition” value does the source give for Cc1cccc(NC(=O)[C@@H]2CCCN2c2ncccc2C#N)n1 here?
**A.** -10%

**Q.** What about the Z score of the same compound?
**A.** 1.74

**Q.** Which results are given for CCC(C)C(C)(O)CNC(=O)C(=O)Nc1c(F)cccc1F (stereo not drawn)?
**A.** % Inhibition: -3%; Z score: 0.5

**Q.** Which results are given for OCc1cc(/C=C/C2CCCCC2)c(F)cn1?
**A.** % Inhibition: -5%; Z score: 0.42

**Q.** How did the “% Inhibition” value turn out when CC(NS(=O)(=O)c1ccc(NC(=O)Cc2ccc(Cl)c(Cl)c2)cc1)C1CC2CCC1C2 (stereo not drawn) was run?
**A.** -8%

**Q.** And the Z score?
**A.** 0.81

**Q.** Which results are given for N#Cc1c[nH]c(C(=O)N2CCC3(CCCCC3)C2)c1?
**A.** % Inhibition: -4%; Z score: 0.58

**Q.** What does the source list for CC(C)CCNC(=O)c1[nH]cnc1C(=O)N[C@H]1CCc2ccccc21?
**A.** % Inhibition: 6%; Z score: -0.73

**Q.** How did the “% Inhibition” value turn out when Cc1cc2n(n1)CCC(=O)N2CC(=O)NC1CCCCC1 was run?
**A.** -4%

**Q.** What about the Z score of the same compound?
**A.** 0.45

**Q.** Which “% Inhibition” value does the source give for Cc1cc(C(=O)N2CCN(c3nccnc3C#N)C[C@@H](O)C2)no1 here?
**A.** 12%

**Q.** And the Z score?
**A.** -1.58

**Q.** For O=C(Nc1ccc(Cl)c(Cl)c1)N1CCc2nc(-c3ccccc3)nc(N3CCCCC3)c2C1, which “% Inhibition” value is on record?
**A.** -16%

**Q.** And the Z score?
**A.** 2.72

**Q.** O=C(Nc1ccccc1)[C@H]1CCS(=O)(=O)C12CCN(C(=O)NCc1ccccc1)CC2 was tested. Which “% Inhibition” value did it give?
**A.** -7%

**Q.** And the Z score?
**A.** 1.34

**Q.** How did the “% Inhibition” value turn out when O=S(=O)(C1CC1)N1CCCC12CCC2 was run?
**A.** -5%

**Q.** And the Z score?
**A.** 0.49

**Q.** What does the source list for CC(=O)c1cccc(NC(=O)c2cccc(NS(=O)(=O)c3ccc4c(c3)OCCO4)c2)c1?
**A.** % Inhibition: -9%; Z score: 1.48

**Q.** Which results are given for CCOc1ccccc1NC(=O)Cn1cc(-c2ccccc2)c2ncn(CCCOC)c(=O)c21?
**A.** % Inhibition: 5%; Z score: -0.71

**Q.** Which results are given for O=C(Nc1ccc(C2CC2)cn1)N1CCCc2n[nH]cc21?
**A.** % Inhibition: -1%; Z score: 0.22

**Q.** With CC1=NN(c2ccccc2)C(=O)C1C1C(=O)N(c2ccccc2)N=C1C (stereo not drawn) as the compound, how does the “% Inhibition” value read?
**A.** -6%

**Q.** And the Z score?
**A.** 1.05

**Q.** Which results are given for Cc1cnc2c(c1)N(C(=O)Cn1cc(Br)cn1)CCO2?
**A.** % Inhibition: -6%; Z score: 0.51

**Q.** Which “% Inhibition” value does the source give for CC(C)[C@H](Cn1ccnn1)NS(=O)(=O)c1ccc2c(c1)CCCC2 here?
**A.** 10%

**Q.** What about the Z score of the same compound?
**A.** -1.29

**Q.** Which results are given for Cc1cc(C)c(-n2cccn2)c(CN2Cc3[nH]cnc3C[C@H]2C(=O)O)c1?
**A.** % Inhibition: -4%; Z score: 0.52

**Q.** C[C@@H](c1ccon1)N(C)C(=O)CCc1cccnc1 was tested. Which “% Inhibition” value did it give?
**A.** 10%

**Q.** And the Z score?
**A.** -1.62

**Q.** For CC1CN(CC(=O)NCCC#N)CC(C)O1 (stereo not drawn), which “% Inhibition” value is on record?
**A.** -5%

**Q.** And the Z score?
**A.** 0.65

**Q.** For Cc1noc(C)c1S(=O)(=O)N1CC[C@H](Cc2nnc(-c3ccccc3)o2)C1, which “% Inhibition” value is on record?
**A.** -5%

**Q.** And the Z score?
**A.** 0.74

**Q.** With CC(O)CN1CCN(S(=O)(=O)c2ccco2)C(C)C1 (stereo not drawn) as the compound, how does the “% Inhibition” value read?
**A.** 2%

**Q.** What about the Z score of the same compound?
**A.** -0.29

**Q.** What does the source list for Cc1ccccc1S(=O)(=O)N1CCOC[C@@H](CN(C)C)C1?
**A.** % Inhibition: -7%; Z score: 0.89

**Q.** For O=C(CCc1ccccc1)C(=O)N1CCCOCC1, which “% Inhibition” value is on record?
**A.** 2%

**Q.** And the Z score?
**A.** -0.4

**Q.** Which results are given for NS(=O)(=O)c1ccc(CCNC(=O)CCS(=O)(=O)c2ccc(Cl)cc2)cc1?
**A.** % Inhibition: -27%; Z score: 3.16

**Q.** Which results are given for O=S1(=O)C[C@H](N2CCC3(CC2)OCCO3)[C@@H](S(=O)(=O)c2ccccc2)C1?
**A.** % Inhibition: -4%; Z score: 0.54

**Q.** With FC(F)(F)c1nc(NC[C@H]2CCCO2)c2nc[nH]c2n1 as the compound, how does the “% Inhibition” value read?
**A.** -4%

**Q.** What about the Z score of the same compound?
**A.** 0.73

**Q.** Cc1ccc(S(=O)(=O)c2ncccc2CN2CCCC2)cc1 was tested. Which “% Inhibition” value did it give?
**A.** -8%

**Q.** And the Z score?
**A.** 1.15

**Q.** Which “% Inhibition” value does the source give for Cc1noc(C)c1S(=O)(=O)N1CC(c2ncc(C)n2CC2CC2)C1 here?
**A.** -3%

**Q.** What about the Z score of the same compound?
**A.** 0.33

**Q.** What does the source list for CC(C)(C)C[C@@H](CO)NC(=O)c1c(F)ccc(O)c1F?
**A.** % Inhibition: -3%; Z score: 0.49
